The whole screen tested about 94,000 compounds, of which about 6,200 (6.6%) were called active. This list was built around the results that the source calls inconclusive (neither active nor inactive); the mix of calls is not that of the screen. The call rests on the fitted dose curve; in most records, active means well fitted inhibition curve with a large enough effect; inconclusive means small, poorly fitted or top-dose-only effect; inactive means flat fitted curve, though single readings scatter. A potency beside an inconclusive call is a rough fit, not a confirmed value.
assay: Cytotoxic Profiling in HEK 293 Cell Line of Diverse Libraries Using Quantitative High-Throughput Screening; details: HEK 293 viability, ATP luminescence (CellTiter-Glo), 48-72 h; series mostly up to 115 µM; further: nearly all actives have a fitted effect of over 60% in size
Method in brief: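 HEK 293 cells at 250 cells/well were exposed to compounds by pintool transfer for 48 or 72 hr at 37 degree Celsius, 5% CO2. Viability was read as ATP-coupled luminescence with CellTiter-Glo after 10 min at room temperature.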
Potency means the concentration at half of the fitted maximal effect; tags describe the fitted curve by direction and shape.

Row | SMILES | Potency
1 | COCCO[C@H]1C(=O)N(C2CCN(C(=O)c3ccc(C#N)cc3)CC2)[C@H]1c1ccncc1 | inactive
2 | Cc1ccc(CNC(=O)CN2C(=O)NC3(CCCCC3)C2=O)cc1 | inactive
3 | Cc1ccc(C2Cn3nnc(C(=O)N4CCC(C(=O)NC5CCCCCCC5)CC4)c3CO2)cc1 (stereo not drawn) | inconclusive: 3.55 µM [inhibitor, full curve, poor fit]
4 | O=C(NCc1cc(F)ccc1F)c1csc(N2CCN(c3ccccc3F)CC2)n1 | inconclusive: 50.1 µM [inhibitor, partial curve, poor fit]
5 | CCOC(=O)C1CCN(C(=O)C2COC3(CCCCC3)N2C(=O)c2cc(F)cc(F)c2)CC1 (stereo not drawn) | inconclusive: 50.1 µM [inhibitor, partial curve, poor fit]
6 | CCC1=C(C(=O)OC)C(c2ccc(C)cc2C)N2C(CC(=O)N3CCOCC3)=CSC2=N1 (stereo not drawn) | inconclusive: 89.1 µM [inhibitor, single point]
7 | Cc1cccc2c1O[C@H]1[C@H](C(N)=O)CN(C(=O)c3ccc(C(F)(F)F)cc3)[C@@H]21 | inconclusive: 35.5 µM [inhibitor, partial curve, poor fit]
8 | Cc1cc(C)cc(C(=O)NCCn2cccc2-c2nc(-c3ccc4c(c3)OCO4)no2)c1 | inconclusive: 22.4 µM [inhibitor, full curve, poor fit]
9 | C[S+](=O)([O-])c1ccc(-c2cc(C(=O)NC3CCCC3)nn3cccc23)cc1 | inconclusive: 50.1 µM [inhibitor, partial curve, poor fit]
10 | O=C(NC1CCCN(c2cc(-c3ccccc3)[nH]n2)C1)c1ccccc1C(F)(F)F (stereo not drawn) | inconclusive: 44.7 µM [inhibitor, partial curve, poor fit]
11 | CC(C)NC(=O)NC1CCN(c2ccc3nnc(C4CC4)n3n2)C1 (stereo not drawn) | inactive
12 | NCc1ccc(-c2ccc(OC(F)(F)F)cc2)cc1 | active: 25.1 µM
13 | Cc1ccc(OCC(=O)c2ccc3c(c2)N(CC(=O)NC2CCCCC2)C(=O)CO3)c(Cl)c1 | inconclusive: 89.1 µM [inhibitor, single point]
14 | O=C(Nc1nc2c(s1)CCCC2)C1CC(=O)N(c2n[nH]c3ccccc23)C1 (stereo not drawn) | inconclusive: 89.1 µM [inhibitor, single point]
15 | Cc1csc(Nc2ccc3ncn(Cc4ccccn4)c(=O)c3n2)n1 | inconclusive: 112 µM [inhibitor, partial curve]
16 | CCc1nc(NCc2cn[nH]c2-c2ccc(Cl)cc2)c2cnn(C)c2n1 | inconclusive: 50.1 µM [inhibitor, partial curve, poor fit]
17 | CC(=O)c1cccc(NC(=O)c2cnc(-c3ccccc3)nc2-c2ccncc2)c1 | inconclusive: 89.1 µM [inhibitor, single point]
18 | Cc1nn2c(c1-c1ccnn1C(C)C)N(Cc1ccc(C(=O)O)s1)CCC2 | inconclusive: 22.4 µM [inhibitor, full curve, poor fit]
19 | O=C(NC1CCN(c2cc(-c3ccccc3)[nH]n2)CC1)c1ccsc1 | active: 79.4 µM
20 | CCCCCC(=O)Nc1nc2c(s1)C[C@@H]1[C@](C)(CO)[C@H](O)CC[C@@]1(C)[C@@H]2CC(=O)N[C@@H](CO)CC(C)C | inconclusive: 44.7 µM [inhibitor, partial curve, poor fit]
21 | O=C(c1ccccc1)N1Cc2ccccc2CC2(CCN(CC3CCNC3)C2)C1 (stereo not drawn) | inconclusive: 3.55 µM [inhibitor, full curve, poor fit]

Row | SMILES | Potency
22 | O=C(COc1ccccc1)Nc1ccc2c(c1)CN(CCc1ccc(F)cc1)C(=O)CO2 | inconclusive: 8.91 µM [inhibitor, full curve, poor fit]
23 | CC(=O)N1CCCN(c2ccc(-c3nc(-c4ccccc4F)no3)cn2)CC1 | inactive
24 | COc1ccc(F)cc1-c1ccc(CN2CCCCC2C(=O)NCc2cccnc2)cc1 (stereo not drawn) | active: 50.1 µM
25 | CC1Oc2ccc(NC(=O)c3ccccc3)cc2CN(Cc2ccc(Cl)cc2)C1=O (stereo not drawn) | active: 8.91 µM
26 | COCc1nc(CCNS(=O)(=O)c2cccc(OC)c2)no1 | inactive
27 | O=C(NC1CC1)[C@@H]1CN(CCCc2ccccc2)C[C@H]1CO | inconclusive: 56.2 µM [inhibitor, partial curve, poor fit]
28 | O=c1[nH]cccc1-c1nccc(C2(c3ccccc3Cl)CCNCC2)n1 | inconclusive: 56.2 µM [inhibitor, partial curve, poor fit]
29 | O=C(NCc1ccco1)C1c2ccccc2C(=O)N(C2CCCC2)C12CCCCC2 (stereo not drawn) | inconclusive: 79.4 µM [inhibitor, partial curve]
30 | O=C1N(Cc2ccccc2)c2ccccc2C12CCN(Cc1ccccc1)C2 (stereo not drawn) | inconclusive: 79.4 µM [inhibitor, partial curve, poor fit]
31 | Cc1oc(-c2ccccc2)nc1CN1CCCC(C(=O)N2CCC(c3nc(C(=O)N4CCCC4)c(C)o3)CC2)C1 (stereo not drawn) | inconclusive: 44.7 µM [inhibitor, partial curve, poor fit]
32 | CC(C)n1cnnc1-c1nn(C)c2c1CN(C(=O)c1ccc(F)cc1)CC2 | inactive
33 | CN(Cc1ccc(-c2ccccc2)cc1)Cc1cccc(OC(F)(F)F)c1 | inactive
34 | O=C(C1CCCN(c2nccc(Nc3ccccc3F)n2)C1)N1CCN(c2ncccn2)CC1 (stereo not drawn) | inconclusive: 50.1 µM [inhibitor, partial curve, poor fit]
35 | COc1ccc(NC(=O)c2ccc3c(c2)OCCN(CCC(F)(F)F)C3)cc1F | inconclusive: 28.2 µM [inhibitor, partial curve, poor fit]
36 | COc1cccc(CN2Cc3nc(-c4cc(Cl)ccc4OC)ccc3OCC2=O)c1 | active: 100 µM
37 | Cc1ccc2nc(NC(=O)C3CC(=O)N(c4n[nH]c5ccccc45)C3)sc2c1 (stereo not drawn) | active: 39.8 µM
38 | CN(Cc1cccc(N2CCN(C(=O)c3c(Cl)cccc3Cl)CC2)c1)[S+](C)(=O)[O-] | inconclusive: 56.2 µM [inhibitor, partial curve, poor fit]
39 | CC(=O)N(C)Cc1ccc(F)cc1 | inactive
40 | CC(C)(Oc1nn(CC2CCOCC2)c2ccccc12)C(=O)NC1CCOCC1 | inactive
41 | COc1cccc(-c2ccc(C(=O)NCCNC(=O)Nc3ccccc3)cc2)c1 | inconclusive: 35.5 µM [inhibitor, full curve]
42 | COc1ccccc1-c1onc(C)c1C(=O)NCc1ccc(Cl)cc1 | inactive

Row | SMILES | Potency
43 | Cc1ccc(CN2CCCCCCNC(=O)CC2c2ccccc2)s1 (stereo not drawn) | active: 39.8 µM
44 | O=C(Cc1ccccn1)N1CCC2(CC1)CC(c1cccc(C(F)(F)F)c1)=NO2 | inconclusive: 56.2 µM [inhibitor, partial curve, poor fit]
45 | O=C1NC(C(=O)NCc2cccc(F)c2)Cn2cccc21 (stereo not drawn) | inactive
46 | COc1ccc(CNC(=O)C2CCCCN2Cc2ccc(-c3cc(F)ccc3OC)cc2)cc1OC (stereo not drawn) | inconclusive: 50.1 µM [inhibitor, partial curve, poor fit]
47 | Cc1cc(C)n(CCC(=O)N2CC(Oc3cccc(-c4nc(-c5ccccc5)no4)c3)C2)n1 | inconclusive: 39.8 µM [inhibitor, full curve, poor fit]
48 | O=C(Nc1ccc(F)cc1)C1CN(S(=O)(=O)c2cccnc2)CC12CCCCC2 (stereo not drawn) | inconclusive: 89.1 µM [inhibitor, single point]
49 | O=[S+]([O-])(c1ccccc1)N1Cc2ccccc2CC2(CCCN2Cc2ccncc2)C1 (stereo not drawn) | inconclusive: 79.4 µM [inhibitor, partial curve]
50 | Cc1ccc(CNC(=O)N2CCCCCCNC(=O)CC2)cc1 | inactive
51 | COc1ccc(-n2nc(C3CCCN(Cc4cccs4)C3)[nH]c2=O)cc1 (stereo not drawn) | inconclusive: 79.4 µM [inhibitor, partial curve, poor fit]
52 | COc1ccc(Nc2ccnc(N3CCN(C(=O)NC(C)C)CC3)n2)cc1 | inconclusive: 56.2 µM [inhibitor, partial curve, poor fit]
53 | Cc1ccccc1C(=O)N1CCC(CCC(=O)NCCc2c[nH]c3ccccc23)CC1 | inconclusive: 70.8 µM [inhibitor, partial curve, poor fit]
54 | CNC(=O)c1cc(-c2ccc(Cl)cc2Cl)nc2c1cnn2C | inconclusive: 100 µM [inhibitor, partial curve]
55 | Cc1ccc(-c2cccc(CN3CCCC3C(=O)NCC(F)F)c2)cc1Cl (stereo not drawn) | active: 39.8 µM
56 | O=C(c1cc2n(n1)CC(c1ccc3c(c1)OCO3)OC2)N1CCCCC1 (stereo not drawn) | active: 35.5 µM
57 | CCn1nc(C)c(CCN(C)C(=O)Cn2nc3n(c2=O)CCC(N)CC3)c1C (stereo not drawn) | inactive
58 | C[C@H](O)c1onc(-c2ccccc2)c1C(=O)N1CCCCC1 | inconclusive: 17.8 µM [inhibitor, partial curve, poor fit]
59 | CCN1c2cc(C(=O)NCc3ccc(F)cc3)ccc2C(=O)N2CCCCCC21 (stereo not drawn) | inconclusive: 44.7 µM [inhibitor, partial curve, poor fit]
60 | O=C(NCc1cccnc1Oc1cccc(C(F)(F)F)c1)c1cccs1 | inconclusive: 79.4 µM [inhibitor, partial curve, poor fit]
61 | CCC(C)(C)c1ccc2c(C(=O)N3C[C@H](N)C[C@H]3C(=O)NC)csc2c1 | inconclusive: 89.1 µM [inhibitor, single point]
62 | O=C(O)c1cc(-c2ccncc2)cc(S(=O)(=O)N2CCCCCC2)c1 | inactive
63 | O=C1CO[C@H]2CCN(Cc3ccccn3)CC[C@@H]2N1c1ccccc1 | inconclusive: 112 µM [inhibitor, partial curve, poor fit]

— PubChem BioAssay AID1345083 (National Center for Advancing Translational Sciences (NCATS), 2018)
